The values below come from patent publication US20240076343A1 (CEPHALON, published 2024).

Common to all, as to test: cell-based or functional assay
For experiment [1], the target named is T1, intermediate-affinity hIL-2 receptor (IL-2Rβγ) on TF1+IL-2Rβ cells (human, UniProt P14784 27-551; P31785 23-369).
T1 sequence 1: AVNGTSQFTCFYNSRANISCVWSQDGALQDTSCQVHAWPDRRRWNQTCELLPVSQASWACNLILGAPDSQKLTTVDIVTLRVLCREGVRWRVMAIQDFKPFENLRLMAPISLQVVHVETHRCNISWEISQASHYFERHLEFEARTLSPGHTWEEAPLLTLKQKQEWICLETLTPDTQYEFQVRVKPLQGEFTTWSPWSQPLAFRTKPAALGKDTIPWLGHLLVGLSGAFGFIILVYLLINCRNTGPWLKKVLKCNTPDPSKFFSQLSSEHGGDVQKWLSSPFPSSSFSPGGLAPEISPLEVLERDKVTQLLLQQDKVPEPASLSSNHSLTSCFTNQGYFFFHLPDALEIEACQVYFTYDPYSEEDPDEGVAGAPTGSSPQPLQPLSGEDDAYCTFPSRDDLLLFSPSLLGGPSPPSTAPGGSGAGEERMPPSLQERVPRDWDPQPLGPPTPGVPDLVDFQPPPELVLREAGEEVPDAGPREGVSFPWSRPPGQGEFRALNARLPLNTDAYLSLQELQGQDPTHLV
T1 sequence 2: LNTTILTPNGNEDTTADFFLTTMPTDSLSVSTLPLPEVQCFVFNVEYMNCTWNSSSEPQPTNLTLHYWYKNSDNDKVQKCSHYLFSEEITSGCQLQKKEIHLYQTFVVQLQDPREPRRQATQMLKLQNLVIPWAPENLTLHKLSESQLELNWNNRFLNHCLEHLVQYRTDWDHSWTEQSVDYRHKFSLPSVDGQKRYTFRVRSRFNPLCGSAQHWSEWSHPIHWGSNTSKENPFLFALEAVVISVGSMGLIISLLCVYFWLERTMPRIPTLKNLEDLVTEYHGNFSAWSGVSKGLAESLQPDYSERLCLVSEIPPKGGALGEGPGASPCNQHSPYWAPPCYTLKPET

For experiment [2], the target named is T1, intermediate-affinity hIL-2 receptor …. This is another data set of the same source.
Experiment [3] concerns the target T2, high-affinity hIL-2 receptor (IL-2Rαβγ) (human, UniProt P01589 22-272; P14784 27-551; P31785 23-369).
T2 sequence 1: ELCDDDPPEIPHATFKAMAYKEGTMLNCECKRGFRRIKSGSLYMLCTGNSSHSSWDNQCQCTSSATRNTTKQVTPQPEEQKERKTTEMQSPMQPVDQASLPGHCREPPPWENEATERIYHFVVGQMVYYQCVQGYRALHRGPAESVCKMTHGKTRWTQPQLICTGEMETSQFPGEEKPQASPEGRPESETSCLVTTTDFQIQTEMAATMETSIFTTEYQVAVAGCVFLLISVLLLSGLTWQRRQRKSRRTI
T2 sequence 2: T1 sequence 1
T2 sequence 3: T1 sequence 2

Experiment [4] deals with T3, intermediate affinity hIL-2 receptor complex (IL-2Rβγ) (human, UniProt P14784 27-551; P31785 23-369).
T3 sequence 1: T1 sequence 1
T3 sequence 2: T1 sequence 2

Experiment [5] concerns the target T4, intermediate affinity hIL-2 receptor complex (IL-2Rβγ) on TF1+IL-2Rβ cells (human, UniProt P14784 27-551; P31785 23-369).
T4 sequence 1: T1 sequence 1
T4 sequence 2: T1 sequence 2

Experiment [6] concerns the target T5, high-affinity hIL-2 receptor (IL-2Rαβγ) on NK-92 cells (human, UniProt P01589 22-272; P14784 27-551; P31785 23-369).
T5 sequence 1: T2 sequence 1
T5 sequence 2: T1 sequence 1
T5 sequence 3: T1 sequence 2

B1: 1H3-hIgG1-L6-hIL-2 (D20A/R38E) (other)
heavy: EVQLVESGGGLVQPGRSLKLSCAVSGFTFSDYAMAWVRQAPKKGLEWVATISYDGSRTYYRDSVKGRFTISRDNAKITLYLQMDSLRSEDTATYYCARHGSGYFDYWGQGVMVTVSS[not shown - about 450 residues with a human IgG1 Fc and changes]
light: DTVLTQSPALAVSPGERVTISCRASESVRTGVHWYQQKPGQQPKLLIYGASNLESGVPARFSGSGSGTDFTLTIDPVEADDTATYFCQQSWNDPFTFGSGTKLEIKRTVAAPSVFIFPPSDEQLKSGTASVVCLLNNFYPREAKVQWKVDNALQSGNSQESVTEQDSKDSTYSLSSTLTLSKADYEKHKVYACEVTHQGLSSPVTKSFNRGEC
Regarding B1, the “Fold decrease from rhIL-2 (TF1 + IL-2Rβ + hPD-1)” value in experiment [1] is 297 fold. In experiment [2], the “Fold change from rhIL-2 (TF1 + IL-2Rβ)” value was above 10000 fold.

B2: 1H3-hIgG1-L6-hCD25(1-164)-L20-hIL-2 (E95K) (other)
heavy: EVQLVESGGGLVQPGRSLKLSCAVSGFTFSDYAMAWVRQAPKKGLEWVATISYDGSRTYYRDSVKGRFTISRDNAKITLYLQMDSLRSEDTATYYCARHGSGYFDYWGQGVMVTVSS[not shown - human IgG1 constant region]SGGGGSELCDDDPPEIPHATFKAMAYKEGTMLNCECKRGFRRIKSGSLYMLCTGNSSHSSWDNQCQCTSSATRNTTKQVTPQPEEQKERKTTEMQSPMQPVDQASLPGHCREPPPWENEATERIYHFVVGQMVYYQCVQGYRALHRGPAESVCKMTHGKTRWTQPQLICTSGGGGSGGGGSGGGGSGGGS[not shown - about 150 residues]
light: B1 light
As for B2, the “Fold change from rhIL-2 (NK-92), pSTAT5 titration” value in experiment [3] stood at 792 fold. Besides, the “Fold change from rhIL-2 (TF1 + IL-2Rβ), pSTAT5 titration” value in experiment [4] is around 434 fold.

B3: 1H3-hIgG1-L6-hCD25(1-164)-L20-hIL-2 (I92A) (other)
heavy: EVQLVESGGGLVQPGRSLKLSCAVSGFTFSDYAMAWVRQAPKKGLEWVATISYDGSRTYYRDSVKGRFTISRDNAKITLYLQMDSLRSEDTATYYCARHGSGYFDYWGQGVMVTVSS[not shown - human IgG1 constant region]SGGGGSELCDDDPPEIPHATFKAMAYKEGTMLNCECKRGFRRIKSGSLYMLCTGNSSHSSWDNQCQCTSSATRNTTKQVTPQPEEQKERKTTEMQSPMQPVDQASLPGHCREPPPWENEATERIYHFVVGQMVYYQCVQGYRALHRGPAESVCKMTHGKTRWTQPQLICTSGGGGSGGGGSGGGGSGGGS[not shown - about 150 residues]
light: B1 light
Consider B3, for which, in experiment [5], the “Fold change from hIL-2 (TF1 + IL-2Rβ)” value came out at 3 fold. Besides, the “Fold change from hIL-2 (NK-92)” value in experiment [6] is 15 fold.

B4: 1H3-hIgG1-L6-hCD25(1-164)-L20-hIL-2 (N88R) (other)
heavy: EVQLVESGGGLVQPGRSLKLSCAVSGFTFSDYAMAWVRQAPKKGLEWVATISYDGSRTYYRDSVKGRFTISRDNAKITLYLQMDSLRSEDTATYYCARHGSGYFDYWGQGVMVTVSS[not shown - human IgG1 constant region]SGGGGSELCDDDPPEIPHATFKAMAYKEGTMLNCECKRGFRRIKSGSLYMLCTGNSSHSSWDNQCQCTSSATRNTTKQVTPQPEEQKERKTTEMQSPMQPVDQASLPGHCREPPPWENEATERIYHFVVGQMVYYQCVQGYRALHRGPAESVCKMTHGKTRWTQPQLICTSGGGGSGGGGSGGGGSGGGS[not shown - about 150 residues]
light: B1 light
Regarding B4, in experiment [5], the “Fold change from hIL-2 (TF1 + IL-2Rβ)” value turned out to be 17 fold. In addition, the “Fold change from hIL-2 (NK-92)” value in experiment [6] is 24 fold.

B5: 1H3-hIgG1-L6-hCD25(1-164)-L20-hIL-2 (D84K) (other)
heavy: EVQLVESGGGLVQPGRSLKLSCAVSGFTFSDYAMAWVRQAPKKGLEWVATISYDGSRTYYRDSVKGRFTISRDNAKITLYLQMDSLRSEDTATYYCARHGSGYFDYWGQGVMVTVSS[not shown - human IgG1 constant region]SGGGGSELCDDDPPEIPHATFKAMAYKEGTMLNCECKRGFRRIKSGSLYMLCTGNSSHSSWDNQCQCTSSATRNTTKQVTPQPEEQKERKTTEMQSPMQPVDQASLPGHCREPPPWENEATERIYHFVVGQMVYYQCVQGYRALHRGPAESVCKMTHGKTRWTQPQLICTSGGGGSGGGGSGGGGSGGGS[not shown - about 150 residues]
light: B1 light
On to B5, for which the “Fold change from hIL-2 (TF1 + IL-2Rβ)” value in experiment [5] was determined as 17 fold. The “Fold change from hIL-2 (NK-92)” value in experiment [6] is 23 fold.

B6: 1H3-hIgG1-L6-hCD25(1-164)-L20-hIL-2 (E95A) (other)
heavy: EVQLVESGGGLVQPGRSLKLSCAVSGFTFSDYAMAWVRQAPKKGLEWVATISYDGSRTYYRDSVKGRFTISRDNAKITLYLQMDSLRSEDTATYYCARHGSGYFDYWGQGVMVTVSS[not shown - human IgG1 constant region]SGGGGSELCDDDPPEIPHATFKAMAYKEGTMLNCECKRGFRRIKSGSLYMLCTGNSSHSSWDNQCQCTSSATRNTTKQVTPQPEEQKERKTTEMQSPMQPVDQASLPGHCREPPPWENEATERIYHFVVGQMVYYQCVQGYRALHRGPAESVCKMTHGKTRWTQPQLICTSGGGGSGGGGSGGGGSGGGS[not shown - about 150 residues]
light: B1 light
Regarding B6, the “Fold change from rhIL-2 (NK-92), pSTAT5 titration” value in experiment [3] turned out to be 30 fold. Further, the “Fold change from rhIL-2 (TF1 + IL-2Rβ), pSTAT5 titration” value in experiment [4] amounted to 16 fold.

B7: 1H3-hIgG1-L6-hCD25(1-164)-L20-hIL-2 (N88E) (other)
heavy: EVQLVESGGGLVQPGRSLKLSCAVSGFTFSDYAMAWVRQAPKKGLEWVATISYDGSRTYYRDSVKGRFTISRDNAKITLYLQMDSLRSEDTATYYCARHGSGYFDYWGQGVMVTVSS[not shown - human IgG1 constant region]SGGGGSELCDDDPPEIPHATFKAMAYKEGTMLNCECKRGFRRIKSGSLYMLCTGNSSHSSWDNQCQCTSSATRNTTKQVTPQPEEQKERKTTEMQSPMQPVDQASLPGHCREPPPWENEATERIYHFVVGQMVYYQCVQGYRALHRGPAESVCKMTHGKTRWTQPQLICTSGGGGSGGGGSGGGGSGGGS[not shown - about 150 residues]
light: B1 light
For B7, the “Fold change from hIL-2 (TF1 + IL-2Rβ)” value in experiment [5] is 18 fold. In addition, the “Fold change from hIL-2 (NK-92)” value in experiment [6] amounted to 25 fold.

B8: 1H3-hIgG1-L6-hCD25(1-164)-L20-hIL-2 (D20Y) (other)
heavy: EVQLVESGGGLVQPGRSLKLSCAVSGFTFSDYAMAWVRQAPKKGLEWVATISYDGSRTYYRDSVKGRFTISRDNAKITLYLQMDSLRSEDTATYYCARHGSGYFDYWGQGVMVTVSS[not shown - human IgG1 constant region]SGGGGSELCDDDPPEIPHATFKAMAYKEGTMLNCECKRGFRRIKSGSLYMLCTGNSSHSSWDNQCQCTSSATRNTTKQVTPQPEEQKERKTTEMQSPMQPVDQASLPGHCREPPPWENEATERIYHFVVGQMVYYQCVQGYRALHRGPAESVCKMTHGKTRWTQPQLICTSGGGGSGGGGSGGGGSGGGS[not shown - about 150 residues]
light: B1 light
Turning to B8, the “Fold change from hIL-2 (TF1 + IL-2Rβ)” value in experiment [5] worked out at 16 fold. In experiment [6], the “Fold change from hIL-2 (NK-92)” value stood at 23 fold.

B9: 1H3-hIgG1-L6-hCD25(1-164)-L20-hIL-2 (D20H) (other)
heavy: EVQLVESGGGLVQPGRSLKLSCAVSGFTFSDYAMAWVRQAPKKGLEWVATISYDGSRTYYRDSVKGRFTISRDNAKITLYLQMDSLRSEDTATYYCARHGSGYFDYWGQGVMVTVSS[not shown - human IgG1 constant region]SGGGGSELCDDDPPEIPHATFKAMAYKEGTMLNCECKRGFRRIKSGSLYMLCTGNSSHSSWDNQCQCTSSATRNTTKQVTPQPEEQKERKTTEMQSPMQPVDQASLPGHCREPPPWENEATERIYHFVVGQMVYYQCVQGYRALHRGPAESVCKMTHGKTRWTQPQLICTSGGGGSGGGGSGGGGSGGGS[not shown - about 150 residues]
light: B1 light
On to B9, for which the “Fold change from hIL-2 (TF1 + IL-2Rβ)” value in experiment [5] was 15 fold. For the same molecule, the “Fold change from hIL-2 (NK-92)” value in experiment [6] is 22 fold.

B10: 1H3-hIgG1-L6-hCD25(1-164)-L20-hIL-2 (N88F) (other)
heavy: EVQLVESGGGLVQPGRSLKLSCAVSGFTFSDYAMAWVRQAPKKGLEWVATISYDGSRTYYRDSVKGRFTISRDNAKITLYLQMDSLRSEDTATYYCARHGSGYFDYWGQGVMVTVSS[not shown - human IgG1 constant region]SGGGGSELCDDDPPEIPHATFKAMAYKEGTMLNCECKRGFRRIKSGSLYMLCTGNSSHSSWDNQCQCTSSATRNTTKQVTPQPEEQKERKTTEMQSPMQPVDQASLPGHCREPPPWENEATERIYHFVVGQMVYYQCVQGYRALHRGPAESVCKMTHGKTRWTQPQLICTSGGGGSGGGGSGGGGSGGGS[not shown - about 150 residues]
light: B1 light
With B10, the “Fold change from hIL-2 (TF1 + IL-2Rβ)” value in experiment [5] was found to be 18 fold. Also, in experiment [6], the “Fold change from hIL-2 (NK-92)” value came out at 25 fold.

B11: 1H3-hIgG1-L6-hCD25(1-164)-L20-hIL-2 (D20R) (other)
heavy: EVQLVESGGGLVQPGRSLKLSCAVSGFTFSDYAMAWVRQAPKKGLEWVATISYDGSRTYYRDSVKGRFTISRDNAKITLYLQMDSLRSEDTATYYCARHGSGYFDYWGQGVMVTVSS[not shown - human IgG1 constant region]SGGGGSELCDDDPPEIPHATFKAMAYKEGTMLNCECKRGFRRIKSGSLYMLCTGNSSHSSWDNQCQCTSSATRNTTKQVTPQPEEQKERKTTEMQSPMQPVDQASLPGHCREPPPWENEATERIYHFVVGQMVYYQCVQGYRALHRGPAESVCKMTHGKTRWTQPQLICTSGGGGSGGGGSGGGGSGGGS[not shown - about 150 residues]
light: B1 light
In the case of B11, the “Fold change from hIL-2 (TF1 + IL-2Rβ)” value in experiment [5] amounted to 16 fold. In addition, the “Fold change from hIL-2 (NK-92)” value in experiment [6] was 23 fold.
